Laboratory results published in the BET-seq Pho4 binding data (Le et al. 2018).
The other results are listed elsewhere or left out. These are noisy estimates, calculated here from bound and input reads.

Target: T1, Pho4 (S. cerevisiae) (UniProt P07270)
T1 sequence: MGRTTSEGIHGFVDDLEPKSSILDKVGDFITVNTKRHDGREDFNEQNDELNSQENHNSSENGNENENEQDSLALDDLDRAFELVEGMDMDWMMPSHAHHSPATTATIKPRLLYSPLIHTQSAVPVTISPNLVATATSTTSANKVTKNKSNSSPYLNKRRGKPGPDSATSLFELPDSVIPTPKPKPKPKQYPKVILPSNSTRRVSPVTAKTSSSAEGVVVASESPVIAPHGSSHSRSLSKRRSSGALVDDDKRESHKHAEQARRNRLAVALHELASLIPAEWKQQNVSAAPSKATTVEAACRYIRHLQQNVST
Test: relative binding free energy (BET-seq); higher = weaker binding
Conditions: reference: library average

Sequence	relative binding free energy [kcal/mol]
TGCAGCACGTGCGTGG	-0.18
TAGTTCACGTGATTTT	0.46
TAGAGCACGTGGTGTA	-0.26
TCGCGCACGTGTGGTA	0.03
ATGGCCACGTGGCTGG	-0.2
AGTCTCACGTGGCGGG	0.02
GTCGGCACGTGCGTGG	-0.11
TAGAGCACGTGTTGGA	-0.15
ATTTTCACGTGAATGT	0.41
AGACGCACGTGTGGTG	-0.16
AAATTCACGTGTGGAG	0.18
AGTGCCACGTGGGCAG	-0.25
GTAGGCACGTGAATTT	0.2
TGGTCCACGTGATATG	0.11
GAAGGCACGTGCGGTA	-0.19
AGGTTCACGTGGTGAA	0.12
AATCTCACGTGTGGGA	0.21
GTGGTCACGTGAATGT	0.43
GTGTCCACGTGTATAG	0.19
GCGGGCACGTGGTTGG	-0.08
GAGTGCACGTGCGATT	0.02
GAAGACACGTGTGGGG	0.13
GCTTGCACGTGGAGTG	-0.12

Sequence	relative binding free energy [kcal/mol]
GTTGTCACGTGTTAGA	0.14
AGGGGCACGTGTGATA	0.03
GTGGACACGTGGGGCT	-0.08
GGTGACACGTGTTTTT	0.05
GTTAACACGTGGGAAG	0.08
AGTGTCACGTGTTAGC	0.19
TGCATCACGTGGCGTT	0.15
TGCGACACGTGATTTG	0.16
GCTGACACGTGAGGAT	0.44
AGCCGCACGTGGGTTT	-0.17
GGGACCACGTGGGTGG	-0.22
TACTTCACGTGTGGCT	0.42
TGCGTCACGTGCAGGA	0.01
CGATGCACGTGTGGAG	0.03
GTTGTCACGTGTTTCG	0.09
TATGTCACGTGTTTTG	0.1
GTGGTCACGTGGTGCC	0.08
GAAATCACGTGTGTAG	0.11
TGAGGCACGTGGACGT	-0.1
GTCTTCACGTGAGTTT	0.44
TCATGCACGTGTGGTA	0.11
TCTCGCACGTGGTGTT	-0.2
CTGGTCACGTGAAATT	0.31

Sequence	relative binding free energy [kcal/mol]
GTGTGCACGTGGGGTA	-0.12
GTGAGCACGTGTAAAG	0.05
TAGCACACGTGAGGGG	0.25
GAATTCACGTGTGTAT	0.34
TGGGTCACGTGTGGGT	0.2
GAGATCACGTGGGCTG	0.1
TACTTCACGTGTAGGG	0.2
AAGTGCACGTGTGAGA	0.05
CGTCGCACGTGCGTGG	-0.17
CGGGCCACGTGGGTGT	-0.24
GGGTTCACGTGGGGTG	0.3
TGGGTCACGTGCTTAT	0.24
TGGACCACGTGTTAGG	-0.02
TAGGACACGTGAGGTC	0.23
CGGTGCACGTGACGGG	0.21
GGCGGCACGTGGTTCG	-0.04
GCATGCACGTGGGAGT	-0.19
TTGTGCACGTGAGGCG	0.12
TATAACACGTGAGGTT	0.26
ATATTCACGTGATGAA	0.45
GTTGGCACGTGAGGCT	0.09
TCGGTCACGTGTTTAA	0.06
TGGGTCACGTGCAGCG	0.13

Sequence	relative binding free energy [kcal/mol]
CAGGACACGTGTTGGG	-0.06
GATTTCACGTGAGATG	0.36
GCTGGCACGTGATTGG	0.06
GTTAGCACGTGTTGAA	-0.04
CGTGTCACGTGTGCTT	0.04
GGCCGCACGTGGGTGG	-0.16
CGATGCACGTGGTGAA	-0.01
TGGTACACGTGCAAGG	-0.11
TCATGCACGTGGATGT	-0.09
TTTGGCACGTGTACTG	-0.05
CATGGCACGTGCGGTT	-0.13
GGTGGCACGTGTAGCG	0.03
GGGGACACGTGAAATG	0.27
GTCTGCACGTGATTAG	0.22
TCAAGCACGTGTAGGT	-0.18
GTGCGCACGTGGAGTT	-0.01
TAAATCACGTGTTGCG	0.23
CGTGACACGTGTGGGT	0.01
TAGAACACGTGTCGGT	0.04
CTGGTCACGTGTGGCA	0.24
GTCGGCACGTGAGTGT	0.15
ATGAACACGTGCGGTG	-0.04
CAGGGCACGTGTGGTC	-0.14

Sequence	relative binding free energy [kcal/mol]
CTATTCACGTGTGTAT	0.21
AAGTGCACGTGCTGGG	0.03
TATTGCACGTGACTGT	0.2
GGCGGCACGTGCGGTG	-0.07
AAGGGCACGTGGTGTG	-0.24
AGTTTCACGTGGTGTA	0.19
TAGTGCACGTGCGTTG	-0.16
TATTGCACGTGCAAGT	-0.03
GTTCACACGTGCTGGG	0.09
CTATGCACGTGGGTCT	-0.2
GGGGTCACGTGCCGCG	-0.03
GTTGTCACGTGGAAAA	0.1
TGGTACACGTGGAGGA	0.08
ATGGACACGTGAGGGG	0.17
GTGGTCACGTGTAGGT	0.15
AGTTCCACGTGGGGGA	-0.06
TCTTACACGTGGGGCG	0.01
GGAGGCACGTGAAGAG	0.22
TTTTACACGTGGGAGT	0.16
GTGCTCACGTGTGTAG	0.24
TAGAGCACGTGGTTTT	-0.13
AAGCGCACGTGTAATG	0.22
TTATACACGTGGCAGT	-0.18
